Measured values taken from PubChem BioAssay AID485294 (National Center for Advancing Translational Sciences (NCATS), 2010).
Out of some 370,000 compounds screened, about 150 (0.041%) were called active. The inconclusive results got no clear call from the source; some entries with a clear call stand among them for comparison. Calls follow the shape of the dose curve; as a rule, active = well fitted inhibition curve with a large enough effect; inconclusive = small, poorly fitted or top-dose-only effect; inactive = flat fitted curve, though single readings scatter. Potencies of inconclusive entries are left out as doubtful fits.

Each molecule was assayed against Beta-lactamase (Escherichia coli (strain K12)) (UniProt P00811) (assay: qHTS Inhibitors of AmpC Beta-Lactamase (assay with detergent)). Conditions: AmpC hydrolysis of nitrocefin, absorbance 480 nm, 0.01% Triton; activity change, negative = inhibition: at 114 µM (top of the series).
Chain of UniProt P00811 (P00811 whole entry, looked up): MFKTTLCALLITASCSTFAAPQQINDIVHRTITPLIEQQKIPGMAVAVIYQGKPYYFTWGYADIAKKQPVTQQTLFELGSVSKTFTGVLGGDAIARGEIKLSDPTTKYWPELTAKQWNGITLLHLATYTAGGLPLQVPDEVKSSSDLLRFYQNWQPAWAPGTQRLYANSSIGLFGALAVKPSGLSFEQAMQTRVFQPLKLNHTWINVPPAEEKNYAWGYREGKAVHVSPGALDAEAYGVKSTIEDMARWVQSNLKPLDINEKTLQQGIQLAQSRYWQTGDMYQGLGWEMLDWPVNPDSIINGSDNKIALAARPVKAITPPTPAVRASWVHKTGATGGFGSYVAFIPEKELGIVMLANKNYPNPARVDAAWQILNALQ
Outline: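 AmpC (5.3 nM in the dispensed reagent) in 20 mM phosphate pH 7.0 with 0.01% (detergent screen) or 0.0001% Triton X-100 was preincubated with compounds for 15 min at room temperature. Nitrocefin was then added from an 800 uM solution, and hydrolysis was followed at 480 nm.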
Also: nearly all actives have a fitted effect of over 25% in size.
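For activity change, negative = inhibition in this document: 0% = no-compound wells and -100% = no-enzyme wells.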
Potency is read from the fitted curve at half-maximal effect; tags tell the direction and shape of the fitted curve.

| Structure (SMILES) | Potency | activity change, negative = inhibition |
| --- | --- | --- |
| Cc1ccc(C)c(N(CC(=O)Nc2ccc(-c3nc4ccc(C)cc4s3)cc2)S(C)(=O)=O)c1 | inconclusive [inhibitor, full curve, poor fit] |  |
| Cc1ccc(S(=O)(=O)n2nc(C)c(C#N)c2N)cc1 | inconclusive [inhibitor, full curve] |  |
| Cc1nc(Oc2ccc(S(=O)(=O)N3CCOCC3)cc2Cl)c2c3c(sc2n1)CCCC3 | inconclusive [inhibitor, partial curve, poor fit] |  |
| CCCCOCCCNC(=O)c1c(-c2ccccc2)noc1C | inconclusive [inhibitor, single point] |  |
| COc1ccc(S(=O)(=O)N2CCCCC2)cc1NS(=O)(=O)c1ccccc1F | inconclusive [inhibitor, full curve, poor fit] |  |
| CCn1c2c(c3cc(Cl)ccc31)CCCC2=O | inconclusive [inhibitor, partial curve] |  |
| Cc1nc2nc(NC(=O)c3ccc(C(C)(C)C)cc3)[nH]n2c(=O)c1Cc1ccccc1 |  | inactive: -1.01% |
| CCN(CC)C(=O)c1c(C)[nH]c(=S)c(C#N)c1-c1ccco1 |  | inactive: 6.28% |
| CN1[C@@H]2CC[C@H]1CC(OC(=O)C1C=Nc3ccccc31)C2 (some centres undefined) | inconclusive [inhibitor, full curve] |  |
| CCOc1cc(-c2nnc(NC(=O)C3=COCCO3)o2)cc(OCC)c1OCC | inconclusive [inhibitor, full curve, poor fit] |  |
| Cc1ccccc1C(=O)N1CCN(c2ncccn2)CC1 | inconclusive [inhibitor, partial curve, poor fit] |  |
| O=C(CCN1C(=O)C2C3CCC(C3)C2C1=O)OCC(=O)c1ccccc1 (centres undefined) | inconclusive [inhibitor, full curve, poor fit] |  |
| O=C(c1cc(F)c(F)cc1Cl)N1CCOCC1 |  | inactive: -14.9% |
| CCOc1ccc(NC(=O)CSc2oc(-c3ccc(F)cc3)nc2S(=O)(=O)c2ccc(C)cc2)cc1 |  | inactive: 5.38% |
| N#Cc1c(N)nc2c(c1-c1ccccc1)CCCC2 | inconclusive [inhibitor, full curve, poor fit] |  |
| Cc1cccc(NC2=C/C(=N/S(=O)(=O)c3cccs3)c3ccccc3C2=O)c1 |  | inactive: -10.9% |
| O=C1Nc2ccc(Br)cc2C1(O)c1ccccc1 (centres undefined) | inconclusive [inhibitor, single point] |  |
| CCN(Cc1ccncc1)C(=S)Nc1c(C)cccc1C |  | inactive: -4.08% |
| CCOc1ccc(S(=O)(=O)N(C)c2ccc(OCC(=O)NCC3CCCO3)cc2)cc1 (centres undefined) | inconclusive [inhibitor, single point] |  |
| Fc1ccc(Sc2ccccc2CNC2=NCCN2)cc1 | inconclusive [inhibitor, single point] |  |
| O=C(Cn1nc(C(=O)O)c2ccccc2c1=O)Nc1cc(Cl)cc(Cl)c1 |  | inactive: -2.9% |
| CCC(C)NC(=O)/C=C/c1cccs1 (centres undefined) | inconclusive [inhibitor, full curve, poor fit] |  |

| Structure (SMILES) | Potency | activity change, negative = inhibition |
| --- | --- | --- |
| O=C(O)CCC(=O)Nc1ccccc1C(=O)NCc1ccccc1 | inconclusive [inhibitor, full curve, poor fit] |  |
| Cc1ccc(NC(=O)c2ccc(C)c(S(=O)(=O)N3CCOCC3)c2)nc1 |  | inactive: 0% |
| CCc1c(C(=O)NC2CCCCC2)[nH]c(C)c1C(C)=O | inconclusive [inhibitor, partial curve, poor fit] |  |
| CCOc1ccc(/C=C(\C#N)C(=O)NCC2CCCO2)cc1OCC (centres undefined) | inconclusive [inhibitor, single point] |  |
| Cc1ccc(-c2ccc(=O)n(Cc3c(F)cccc3Cl)n2)cc1 |  | inactive: -4.12% |
| CCOC(=O)c1c(C)[nH]c(C)c1S(=O)(=O)N1CCCC(C(=O)NCc2ccc(N(C)C)cc2)C1 (centres undefined) |  | inactive: -6.03% |
| CCCc1cc(=O)oc2cc(OCC(=O)NC(Cc3c[nH]c4ccc(O)cc34)C(=O)O)c(Cl)cc12 (centres undefined) | inconclusive [inhibitor, partial curve] |  |
| CCCCOC(=O)Nc1ccc(C(N)=O)cc1 |  | inactive: 1.68% |
| COc1ccc2c(c1)c(=O)c(S(=O)(=O)c1ccccc1)cn2CC(=O)Nc1ccc(C)c(Cl)c1 |  | inactive: -3.46% |
| COCCNC(=O)CN(CCc1ccccc1)S(=O)(=O)c1ccc(Br)cc1 | inconclusive [inhibitor, partial curve, poor fit] |  |
| O=C(Nc1cccc2nsnc12)c1ccc(F)cc1 |  | inactive: 7.15% |
| Cc1ccc(F)cc1NC(=O)C12CC3CC(C1)CC(n1cnc([N+](=O)[O-])n1)(C3)C2 | inconclusive [inhibitor, full curve] |  |
| Cc1ccc(NC(=O)[C@H](Cc2ccccc2)NC(=O)[C@@H]2Cc3ccccc3CN2)c(C)c1 | inconclusive [inhibitor, full curve, poor fit] |  |
| Brc1ccc(-c2cnnc(N3CCCC3)n2)cc1 | inconclusive [inhibitor, full curve, poor fit] |  |
| COc1ccc(-c2cc(C)nc(SCC(=O)c3cccc([N+](=O)[O-])c3)n2)cc1 | inconclusive [inhibitor, partial curve] |  |
| CCOc1nc(Nc2ccc(OC)cc2)nc(OCC)n1 | inconclusive [inhibitor, full curve, poor fit] |  |
| O=C(CSc1ccccc1C(=O)O)NC1CCCCCCC1 | inconclusive [inhibitor, single point] |  |
| CC(C)CN(C(=O)c1ccc(S(=O)(=O)N2CCOCC2)cc1)C1CCS(=O)(=O)C1 (centres undefined) | inconclusive [inhibitor, single point] |  |
| COc1cc(/C=N/NC(=O)C(Cc2c[nH]c3ccccc23)NC(=O)OCc2ccccc2)cc([N+](=O)[O-])c1O (centres undefined) |  | inactive: -6.15% |
| Cn1cnc([N+](=O)[O-])c1Nc1ccc(O)cc1 |  | inactive: 4.18% |
| COC(=O)COc1ccc(Oc2nc(SC)nc(N(C)C)n2)nn1 | inconclusive [inhibitor, full curve] |  |
| c1ccc(Cc2nn[nH]n2)cc1 | inconclusive [inhibitor, partial curve] |  |
